The whole screen tested about 340,000 compounds, of which about 12,000 (3.5%) were called active. The shares of active, inactive and inconclusive entries below differ from those in the screen. The call rests on the fitted dose curve; in most records, active means well fitted inhibition curve with a large enough effect; inconclusive means small, poorly fitted or top-dose-only effect, or another doubt; inactive means no such curve, though single readings can be large or run the other way. No potency is given beside an inconclusive call; the fits are too rough.
Assay: qHTS Assay for Inhibitors of Hepatitis C Virus (HCV)
Conditions: Huh7.5.1 HCVcc-Cre (HCVcc is cell-culture hepatitis C virus) infection, luciferase reporter, 44 h; series mostly up to 41.8 µM
In short: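 After 44 h co-culture of compound, cells and HCVcc-Cre (~0.5 moi), substrate is added for 15 min at room temperature and luciferase measured over 15 sec. Cells were seeded at 1,000/well and pre-cultured 4 h.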
For `Cc1ccc(-c2nnc(SCC(=O)N3CC(C)CC(C)C3)o2)cc1C` (centres undefined), the Potency was inconclusive [inhibitor, single point]. With `CSCCC(=O)N1CC[C@@H](N2CCN(c3ccccc3F)CC2)[C@H](O)C1` the Potency was “inactive”. For `Cc1ccc(NS(=O)(=O)c2ccc(C(=O)NCc3ccncc3)cc2)cc1`, the Potency was inconclusive [inhibitor, single point]. In the case of `CC(C)CCn1cnc2c1c(=O)[nH]c(=O)n2Cc1ccccc1`, the Potency is reported as “inactive”. For `O=C(Nc1cccnc1)c1ccc([N+](=O)[O-])s1`, the Potency was inconclusive [inhibitor, full curve]. With `CC[C@H](C)Cc1cn([C@@H](CCCN=C(NC(=O)OC(C)(C)C)NC(=O)OC(C)(C)C)C(=O)NCCCCCCCCCCC(=O)N2CCN(C(=O)OC(C)(C)C)CC2)nn1` the Potency was “inactive”. In the case of `Oc1c(C=C2N=c3ccccc3=N2)sc(=S)n1C1CCCCC1`, the Potency is reported as inconclusive [inhibitor, single point]. With `COc1ccc(OCCCn2cc(/C=C3/C(=N)N4C=C(C)SC4=NC3=O)c3ccccc32)cc1` the Potency was inconclusive [inhibitor, single point]. For `Cc1ccc(-n2c(O)c(C=NCc3ccccn3)c3ccccc3c2=O)cc1C`, the Potency was inconclusive [inhibitor, single point]. For `O=C(Nc1cc([N+](=O)[O-])ccc1N1CCOCC1)c1ccco1`, the Potency was inconclusive [inhibitor, full curve, poor fit]. With `Cc1cc(C(=O)N2CCCC(C(=O)c3ccc4ccccc4c3)C2)nn1C` (centres undefined) the Potency was inconclusive [inhibitor, single point]. In the case of `Cc1ccc(S(=O)(=O)N2CCCCC2)cc1C(=O)N(C)CCOc1ccccc1`, the Potency is reported as “inactive”. With `O=C(NCC(c1cccs1)N1CCOCC1)c1cn(-c2ccccc2)nc1-c1ccccc1` (centres undefined) the Potency was inconclusive [inhibitor, single point]. With `Cc1ccc(C)c(NC(=O)Cn2nnc(C(=O)NCc3cccs3)c2N)c1` the Potency was inconclusive [inhibitor, full curve]. In the case of `CCOC(=O)c1cc(NC(=O)NCc2ccco2)c(C)nc1C`, the Potency is reported as inconclusive [inhibitor, partial curve]. For `Cn1c(=O)cc(Nc2ccccc2)[nH]c1=O`, the Potency was “inactive”. In the case of `CCOc1ccccc1Nc1nc(-c2sc(C)nc2C)cs1`, the Potency is reported as inconclusive [inhibitor, partial curve]. For `COc1ccc(N=C2NC(=O)/C(=C\C=C\c3ccccc3)S2)cc1`, the Potency was “inactive”. For `Cc1sc2nc(CN(Cc3cccs3)C(=O)C3CC3)[nH]c(=O)c2c1C`, the Potency was inconclusive [inhibitor, single point]. For `CN(C)CC(O)c1ccc(C=Cc2ccc(Cl)cc2)cc1` (centres undefined), the Potency was inconclusive [inhibitor, partial curve]. With `CCOC(=O)C1=C(C)NC(C)=C(C(=O)OCC)C1C(=O)OCC(=O)NCc1ccco1` the Potency was inconclusive [inhibitor, partial curve]. For `COc1cccc(NC(=O)c2cc(-c3ccncc3)nc3c(C)cc(C)cc23)c1`, the Potency was active: 10 µM. With `CCCc1ccc(Oc2cn[nH]c2-c2ccc(O)c(C)c2O)cc1` the Potency was active: 12.6 µM. In the case of `Cc1ccc(C)c(S(=O)(=O)NCc2ccc(C(=O)N3CCCCCC3)cc2)c1`, the Potency is reported as “inactive”. In the case of `N#CCC(=N)N1CCN(c2ccc(Cl)cc2)CC1`, the Potency is reported as inconclusive [inhibitor, full curve, poor fit]. For `CCOc1ccc(-n2ccnc(SCC(=O)NCc3cccc(OC)c3)c2=O)cc1`, the Potency was inconclusive [inhibitor, partial curve, poor fit]. For `COc1ccc(Cl)cc1C(=O)Nc1cccc2ncccc12`, the Potency was inconclusive [inhibitor, single point]. In the case of `COCC(C)n1c(C)cc(C(=O)COC(=O)c2n[nH]c3ccccc23)c1C` (centres undefined), the Potency is reported as “inactive”. With `COc1ccc(-n2c(=O)[nH]c3cc(C(=O)NCCc4ccc(Cl)cc4)ccc3c2=O)cc1OC` the Potency was inconclusive [inhibitor, full curve]. In the case of `COc1ccc(Cl)cc1NC(=O)CN1CCc2ccccc2C1`, the Potency is reported as inconclusive [inhibitor, single point]. In the case of `COc1ccc(-n2ccnc2SCC(=O)Nc2ccccc2)cc1`, the Potency is reported as “inactive”. With `COc1ccc(CNC(=O)[C@H](C)[C@@H]2C[C@@]2(C)[C@@H](NC(=O)OCc2ccccc2)c2ccccc2)cc1OC` the Potency was inconclusive [inhibitor, partial curve]. With `CC1(C)Cc2nc3sc(C(=O)NCCCO)c(N)c3cc2CO1` the Potency was “inactive”. For `COc1ccc(C(=O)Nc2cccc(/C(C)=N/NC(=O)c3ccc([N+](=O)[O-])cc3)c2)cc1OC`, the Potency was inconclusive [inhibitor, partial curve]. For `O=C1Nc2ccccc2/C1=C/c1cccnc1`, the Potency was inconclusive [inhibitor, single point]. With `O=C(CSc1nnc(-c2ccc(O)cc2)n1Cc1ccccc1)NNC(=O)c1ccc(Br)cc1` the Potency was “inactive”. In the case of `O=C(NCCC1=CCCCC1)Nc1ccc2nsnc2c1`, the Potency is reported as inconclusive [inhibitor, single point]. For `CCCOc1ccccc1C(=O)Nc1ccc(S(=O)(=O)N2CCN(C)CC2)cc1`, the Potency was active: 22.4 µM. With `CCOc1ccc(NC(=O)COc2ccc(C(=O)NCCc3ccccc3)cc2)cc1` the Potency was “inactive”. For `CN(C)CCOCCOc1ccc(Cl)cc1Br`, the Potency was inconclusive [inhibitor, single point]. In the case of `CCn1c(=NC(=O)CSC(C)=O)sc2cc(F)ccc21`, the Potency is reported as inconclusive [inhibitor, single point]. In the case of `CCOc1cccc(/C=N/NC(=O)c2cccnc2)c1O`, the Potency is reported as inconclusive [inhibitor, partial curve]. In the case of `O=C(COC(=O)Cc1c[nH]c2ccccc12)Nc1c(Cl)cccc1C(F)(F)F`, the Potency is reported as “inactive”. For `CCN(C(=O)c1cnc(NC(C)C)cc1C(F)(F)F)c1ccc(Cl)cc1Cl`, the Potency was active: 10 µM. With `COc1ccc(C2=CC(c3ccc(C)cc3)n3nnnc3N2)cc1` (centres undefined) the Potency was “inactive”. In the case of `Cc1ccc(Cl)cc1N1CCN(C(=O)CN(C2CCCCC2)S(C)(=O)=O)CC1`, the Potency is reported as inconclusive [inhibitor, single point]. In the case of `Cc1cc(C)c2c(c1)[C@@H]1C=CC[C@@H]1[C@H](c1ccc(S(=O)(=O)N3CCOCC3)cc1)N2`, the Potency is reported as inconclusive [inhibitor, partial curve]. In the case of `O=c1[nH]c(C2CCN(S(=O)(=O)c3ccccc3F)CC2)nc2c1nnn2Cc1ccc(OC(F)(F)F)cc1`, the Potency is reported as inconclusive [inhibitor, single point]. With `CCN(CC)C(=O)COc1ccc(/C=C(\C#N)S(=O)(=O)c2ccccc2)cc1OC` the Potency was “inactive”. For `CCOC(=O)c1[nH]c(C)c(C(=O)Nc2ccccc2C)c1C`, the Potency was inconclusive [inhibitor, full curve, poor fit]. In the case of `COc1ccc([N+](=O)[O-])cc1Nc1c2ccccc2nc2ccccc12`, the Potency is reported as inconclusive [inhibitor, partial curve]. For `c1coc(-c2ccnc(-c3ccncc3)n2)c1`, the Potency was inconclusive [inhibitor, single point]. With `CC(O)CNc1nc2ccccc2n1CC(=O)NC12CC3CC(CC(C3)C1)C2` (centres undefined) the Potency was “inactive”. For `CC(C)(C)OC(=O)NCCCCCc1nnc(SCc2cccc(F)c2)o1`, the Potency was inconclusive [inhibitor, single point]. For `COc1ccc(-c2nc(NC(=O)C3CC(=O)N(Cc4ccco4)C3)sc2C)cc1` (centres undefined), the Potency was inconclusive [inhibitor, single point]. With `O=C(COc1ccc2ccccc2c1Br)Nc1cccnc1` the Potency was inconclusive [inhibitor, single point]. With `CCOC(=O)c1cnn(-c2c(Cc3ccccc3)c(C)nc3c(-c4ccccc4)c(C)nn23)c1N` the Potency was inconclusive [inhibitor, partial curve]. In the case of `Cc1cccc(-c2cc3nc4c(c(NCc5ccco5)n3n2)CCCC4)c1`, the Potency is reported as active: 7.08 µM. In the case of `Cc1c(C(=O)N2CCCCC2)c(S(=O)(=O)N2CCN(c3ccccc3F)CC2)c(C)n1C`, the Potency is reported as “inactive”. For `O=C(Nc1ccc(Cl)cc1)C1C2C=CC3(O2)C1C(=O)N(CCCN1CCCCC1)C3C(=O)NC1CCCCC1` (centres undefined), the Potency was “inactive”. In the case of `COc1ccc(CN2c3cc(S(=O)(=O)N4CCOCC4)ccc3N3CCCC32)cc1` (centres undefined), the Potency is reported as “inactive”. With `CC(C)Oc1cccc(C(=O)NC(=S)Nc2ccc(N3CCN(C)CC3)cc2)c1` the Potency was inconclusive [inhibitor, partial curve]. In the case of `CS(=O)c1ccccc1-c1nc(-c2cccc(Cl)c2)no1` (centres undefined), the Potency is reported as inconclusive [inhibitor, partial curve]. In the case of `Cc1ccccc1NC(=O)c1cc2c(C)nc3ccccc3c2o1`, the Potency is reported as inconclusive [inhibitor, single point]. For `CCOc1ccc(-n2c(SCc3ccc([N+](=O)[O-])cc3)nnc2-c2ccc(OC)cc2)cc1`, the Potency was inconclusive [inhibitor, single point]. With `O=[N+]([O-])c1ccc(O)c([N+](=O)[O-])c1` the Potency was inconclusive [inhibitor, single point]. For `COc1ccc(S(=O)(=O)N2CCC(C(=O)Nc3nccs3)CC2)cc1`, the Potency was “inactive”. With `CCC(C)NCCC(=O)Nc1ccc(Cl)c(S(=O)(=O)Nc2ccc(Cl)cc2)c1` (centres undefined) the Potency was inconclusive [inhibitor, single point]. In the case of `Cn1c2c(c(=O)[nH]c1=O)C(c1ccc(O)cc1)C1=C(N2)c2ccccc2C1=O` (centres undefined), the Potency is reported as inconclusive [inhibitor, partial curve].

— PubChem BioAssay AID651820 (National Center for Advancing Translational Sciences (NCATS), 2012)
Potency means the concentration at half of the fitted maximal effect; tags describe the fitted curve by direction and shape.
